Assay results as given in PubChem BioAssay AID1508623 (National Center for Advancing Translational Sciences (NCATS), 2021).
Out of some 48,000 compounds screened, about 450 (0.94%) were called active. The shares of active, inactive and inconclusive entries below differ from those in the screen. Calls come from the whole dose curve; as a rule, active = well fitted inhibition curve with a large enough effect; inconclusive = small, poorly fitted or top-dose-only effect; inactive = no such curve, though single readings can be large or run the other way. Where the call is inconclusive, the potency comes from a doubtful curve fit.

Experiment: Primary qHTS for Identification of Small Molecule Inhibitors of Huntingtin Promoter Activity; note: nearly all actives have a fitted effect of over 50% in size
Details: HEK293 HTT promoter firefly luciferase reporter (activity 0% = vehicle and -100% = no light), 24 h; series mostly up to 57.5 µM
Outline: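 Firefly luciferase signal from promoter-reporter HEK293 cells was scaled between vehicle (0%) and zero RLU (-100%). Compounds were tested at final concentrations of up to 57.5 uM over 24 h at 37 degrees C. PTC124 at 50 uM final served as control inhibitor.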
Potency is the fitted concentration of half-maximal effect; tags give direction and shape of the fitted curve.

Q: Which Potency does the source give for `O=C(c1ccc2c(c1)N(Cc1ccc(Cl)cc1)C(=O)c1ccccc1S2(=O)=O)N1CCN(Cc2ccccc2)CC1` here?
A: Its Potency is inconclusive: 35.5 µM [inhibitor, single point].

Q: For `Cc1ccc(CCNC(=O)CCn2nc(-c3ccc(Cl)cc3)ccc2=O)cc1`, which Potency is on record?
A: Its Potency is “inactive”.

Q: For `COc1ccc(N2C(=O)CCSC23C(=O)N(Cc2ccc(F)cc2)c2ccccc23)cc1` (centres undefined), which Potency is on record?
A: Its Potency is inconclusive: 31.6 µM [inhibitor, single point].

Q: For `Cc1ccc(-c2onc(C)c2C)cc1S(=O)(=O)Nc1cccc(Cl)c1C`, which Potency is on record?
A: Its Potency is inconclusive: 39.8 µM [inhibitor, single point].

Q: With `CCC(CC)C(=O)Nc1nnc(S(=O)(=O)N2c3ccccc3CC2C)s1` (centres undefined) as the compound, how does the Potency read?
A: The Potency was inconclusive: 22.4 µM [inhibitor, single point].

Q: With `CCOCCCn1c(=N)c(C(=O)NC(C)c2ccccc2)cc2c(=O)n3cccc(C)c3nc21` (centres undefined) as the compound, how does the Potency read?
A: The Potency was “inactive”.

Q: With `Cc1ccc2occ(CC(=O)Nc3ccc(Cl)c(C(F)(F)F)c3)c2c1` as the compound, how does the Potency read?
A: The Potency was inconclusive: 39.8 µM [inhibitor, single point].

Q: Which Potency does the source give for `COC(=O)c1nc2n(n1)C(c1cc(OC)ccc1OC)C=C(c1ccc(Br)cc1)N2` (centres undefined) here?
A: Its Potency is inconclusive: 44.7 µM [inhibitor, partial curve, poor fit].

Q: Which Potency does the source give for `O=C(c1ccccc1F)N1c2nc(-c3ccco3)nn2C2(CCCCC2)[C@@H]2CCCC[C@@H]21` here?
A: The Potency was “inactive”.

Q: With `CC(C)CC(=O)Nc1n[nH]c2c1CN(C(=O)C1CCN(C)CC1)C2(C)C` as the compound, how does the Potency read?
A: The Potency was inconclusive: 6.11 µM [inhibitor, full curve].

Q: For `CCOC(=O)c1ccccc1NC(=O)N1CC(C)Oc2ccc(C)cc21` (centres undefined), which Potency is on record?
A: The Potency was inconclusive: 28.2 µM [inhibitor, single point].

Q: Which Potency does the source give for `CC(=O)c1ccc(C(=O)N(Cc2cccnc2)c2nc3c(C)c(C)ccc3s2)cc1` here?
A: Its Potency is inconclusive: 25.1 µM [inhibitor, single point].

Q: With `CCOC(=O)N1CCN(C(=O)c2ccc3c(c2)N(Cc2cccc(Cl)c2)C(=O)c2ccccc2S3=O)CC1` (centres undefined) as the compound, how does the Potency read?
A: Its Potency is inconclusive: 28.2 µM [inhibitor, single point].

Q: For `O=C1CN(C(=O)COc2ccc(Cl)cc2)C(c2ccc(F)cc2)c2cc(Cl)ccc2N1` (centres undefined), which Potency is on record?
A: The Potency was inconclusive: 39.8 µM [inhibitor, single point].

Q: For `CCCS(=O)(=O)c1nc(S(=O)(=O)c2ccc(C)cc2)c(N(C)Cc2ccccc2)s1`, which Potency is on record?
A: The Potency was inconclusive: 39.8 µM [inhibitor, single point].

Q: For `CCOC(=O)c1sc(NC(=O)C2c3ccccc3Oc3ccccc32)c(C#N)c1C`, which Potency is on record?
A: The Potency was inconclusive: 5.62 µM [inhibitor, partial curve].

Q: For `COc1cc(NC(=O)N2CCC(CN3CCOCC3)CC2)cc(OC)c1OC`, which Potency is on record?
A: The Potency was “inactive”.

Q: For `COC(=O)c1ccc2c(c1)N(Cc1ccc(Cl)cc1)C(=O)c1ccccc1S2`, which Potency is on record?
A: The Potency was inconclusive: 31.6 µM [inhibitor, partial curve, poor fit].

Q: Which Potency does the source give for `Cc1nc2nc(SCC(=O)NC3CCCCC3)nn2c(C)c1Cc1ccccc1Cl` here?
A: The Potency was “inactive”.

Q: For `O=C(O)CCNc1cc(N2CCc3ccccc3CC2)nc(-c2ccccn2)n1`, which Potency is on record?
A: The Potency was “inactive”.

Q: Which Potency does the source give for `Cc1ccc2onc(CC(=O)N3CCN(c4cc(Cl)ccc4C)CC3)c2c1` here?
A: Its Potency is inconclusive: 39.8 µM [inhibitor, partial curve, poor fit].

Q: Which Potency does the source give for `COc1ccc(CNC(=O)c2nc(SCc3ccccc3F)ncc2Cl)cc1` here?
A: The Potency was inconclusive: 39.8 µM [inhibitor, single point].

Q: Which Potency does the source give for `CC(NC(=O)c1ccc2c(c1)CCN2S(=O)(=O)c1ccccc1)c1ccccc1` (centres undefined) here?
A: The Potency was inconclusive: 39.8 µM [inhibitor, partial curve, poor fit].

Q: For `Cc1cccc(/C=C(\C#N)c2nc3ccccc3c(=O)[nH]2)c1`, which Potency is on record?
A: The Potency was “inactive”.

Q: Which Potency does the source give for `CC=CC1=C(C(=O)O)N2C(=O)[C@H](NC(=O)[C@H](N)c3ccc(O)cc3)[C@@H]2SC1` here?
A: The Potency was inconclusive: 43.2 µM [inhibitor, single point].

Q: For `CNC(=O)[C@H](CC1=CN=C2C=CCC=C12)NC(=O)[C@@H](CC(=O)NO)CC(C)C`, which Potency is on record?
A: Its Potency is inconclusive: 8.63 µM [inhibitor, full curve, poor fit].

Q: Which Potency does the source give for `CCOc1ccc(N(CC)S(=O)(=O)N2CCCC(C(=O)Nc3ccc(C(C)=O)cc3)C2)cc1` (centres undefined) here?
A: Its Potency is inconclusive: 25.1 µM [inhibitor, single point].

Q: For `Cc1cccc(C)c1OCCCn1c(CCNC(=O)C2CCCCC2)nc2ccccc21`, which Potency is on record?
A: Its Potency is inconclusive: 39.8 µM [inhibitor, single point].

Q: For `O=C(NC1CC(=O)N(c2ccc(F)cc2)C1)c1ccc(S(=O)(=O)N2CCCCC2)cc1` (centres undefined), which Potency is on record?
A: Its Potency is inconclusive: 20 µM [inhibitor, single point].

Q: With `O=C(NCc1cccs1)c1ccc2c(=O)n3nc(Nc4ccccc4)sc3nc2c1` as the compound, how does the Potency read?
A: The Potency was inconclusive: 0.501 µM [inhibitor, full curve, poor fit].

Q: Which Potency does the source give for `CCOC(=O)c1ccc(N2C(=O)c3[nH]nc(-c4ccccc4)c3C2c2ccc(CC)cc2)cc1` (centres undefined) here?
A: Its Potency is inconclusive: 31.6 µM [inhibitor, partial curve, poor fit].

Q: Which Potency does the source give for `O=C(Cn1c(=O)n(Cc2nc(-c3ccccc3)no2)c(=O)c2ccccc21)Nc1cccc(C(F)(F)F)c1` here?
A: The Potency was inconclusive: 35.5 µM [inhibitor, single point].

Q: Which Potency does the source give for `Cn1cc(-c2cc3n(n2)CCC(=O)N3CCCC(=O)NCc2ccc(Cl)cc2)c2ccccc21` here?
A: The Potency was inconclusive: 22.4 µM [inhibitor, single point].

Q: For `CC1C(=O)Nc2ccc(S(=O)(=O)N3CCCCC3)cc2NC1=O` (centres undefined), which Potency is on record?
A: The Potency was inconclusive: 39.8 µM [inhibitor, single point].

Q: Which Potency does the source give for `CCOC(=O)c1cc(-c2ccc(OC)cc2)n(CCC(=O)Nc2ccccc2OC)c1C` here?
A: Its Potency is inconclusive: 25.1 µM [inhibitor, single point].

Q: With `O=C(CSc1nccn1Cc1ccccc1)NCc1ccco1` as the compound, how does the Potency read?
A: The Potency was “inactive”.

Q: With `CCOc1ccc(NCc2cccn2-c2nnc(N3CCC(C(=O)NCC(C)c4ccccc4)CC3)s2)cc1` (centres undefined) as the compound, how does the Potency read?
A: The Potency was inconclusive: 22.4 µM [inhibitor, partial curve, poor fit].

Q: For `CCN(c1ccccc1)S(=O)(=O)c1ccc(NC(=O)c2nc(SC)ncc2Cl)cc1`, which Potency is on record?
A: The Potency was inconclusive: 28.2 µM [inhibitor, partial curve, poor fit].

Q: With `CCOc1ccc(CN2CCc3nc(N4CCN(c5ccccc5OC)CC4)ncc3C2)cc1OC` as the compound, how does the Potency read?
A: Its Potency is inconclusive: 15.8 µM [inhibitor, partial curve, poor fit].

Q: Which Potency does the source give for `COc1ccc(-c2nc(SCC(=O)NC3CCCC3)c(-c3ccc(F)cc3)[nH]2)cc1` here?
A: The Potency was inconclusive: 25.1 µM [inhibitor, single point].

Q: For `COc1ccc(CNS(=O)(=O)c2ccc(N3CCCCS3(=O)=O)cc2)cc1`, which Potency is on record?
A: The Potency was inconclusive: 20 µM [inhibitor, partial curve, poor fit].

Q: For `CCc1ccc(OC(C)C(=O)N2CCC(c3nc4ccccc4o3)CC2)cc1` (centres undefined), which Potency is on record?
A: The Potency was inconclusive: 39.8 µM [inhibitor, single point].

Q: For `CC1CCN(Cc2c(O)ccc3c(=O)c(Oc4ccccc4Cl)c(C(F)(F)F)oc23)CC1`, which Potency is on record?
A: The Potency was “inactive”.

Q: Which Potency does the source give for `O=C(COc1ccccc1F)Nc1ccc2nc(SCCOc3ccccc3)sc2c1` here?
A: Its Potency is “inactive”.

Q: With `COc1ccc(NC(=O)CC2C(=O)N(c3cccc(OC)c3)C(=O)N2CCc2cccs2)cc1` (centres undefined) as the compound, how does the Potency read?
A: Its Potency is inconclusive: 17.8 µM [inhibitor, partial curve, poor fit].

Q: For `Cc1c2cnn(CC(=O)NCc3ccc(F)cc3)c(=O)c2c(C)n1Cc1cccc(Cl)c1`, which Potency is on record?
A: Its Potency is inconclusive: 28.2 µM [inhibitor, single point].

Q: With `COc1cc(NC(=O)CSc2nnc(C)n3c2cc2oc(C)cc23)cc(OC)c1` as the compound, how does the Potency read?
A: The Potency was “inactive”.

Q: Which Potency does the source give for `Cc1ccccc1-c1noc(-c2ccc(N3CCCCC3)c([N+](=O)[O-])c2)n1` here?
A: The Potency was inconclusive: 6.31 µM [inhibitor, partial curve].

Q: For `COCCN(Cc1cccs1)S(=O)(=O)c1cc(-c2cc(C)no2)ccc1C`, which Potency is on record?
A: The Potency was inconclusive: 31.6 µM [inhibitor, single point].

Q: Which Potency does the source give for `Cc1ccc(CCNS(=O)(=O)c2cc(-c3cc(C)no3)ccc2C)cc1` here?
A: Its Potency is inconclusive: 22.4 µM [inhibitor, single point].

Q: Which Potency does the source give for `COc1cccc(CNC(=O)c2cc(C)nc3c2c(C)nn3-c2ccc(C)cc2)c1` here?
A: The Potency was inconclusive: 25.1 µM [inhibitor, partial curve, poor fit].

Q: Which Potency does the source give for `Cc1ccc(Cn2c(C(=O)O)c(CNCc3ccc(OC(C)C)cc3)c3ccc(C)cc32)cc1` here?
A: Its Potency is inconclusive: 39.8 µM [inhibitor, single point].

Q: For `CCn1c(C(=O)NCc2ccc(F)cc2)cc2oc3ccccc3c21`, which Potency is on record?
A: The Potency was inconclusive: 39.8 µM [inhibitor, single point].

Q: With `Cc1ccc(C)c2sc(NC(=O)c3ccc(S(=O)(=O)N4CCC(C)CC4)cc3)nc12` as the compound, how does the Potency read?
A: The Potency was inconclusive: 39.8 µM [inhibitor, single point].

Q: With `COc1ccc(OC)c(CCNC(=O)CS(=O)(=O)Cc2nc(-c3cccc(Cl)c3)oc2C)c1` as the compound, how does the Potency read?
A: Its Potency is “inactive”.

Q: Which Potency does the source give for `CCOC(=O)c1ccc(N2C(=O)c3n[nH]c(-c4cccs4)c3C2c2ccc(OCC)cc2)cc1` (centres undefined) here?
A: Its Potency is inconclusive: 39.8 µM [inhibitor, single point].

Q: Which Potency does the source give for `CCOc1ccccc1NC(=O)NCc1ccc2c(c1)CCN2C(=O)c1ccccc1` here?
A: The Potency was inconclusive: 25.1 µM [inhibitor, partial curve, poor fit].

Q: Which Potency does the source give for `COc1ccc(/C=C\c2onc(C)c2S(=O)(=O)N2CCC(C(=O)Nc3ccc(F)cc3F)CC2)cc1` here?
A: Its Potency is inconclusive: 25.1 µM [inhibitor, single point].

Q: For `COc1ccc(CC(=O)Nc2ccc3nc(Nc4ccc(OC)cc4)cc(C)c3c2)cc1`, which Potency is on record?
A: Its Potency is inconclusive: 25.1 µM [inhibitor, partial curve].
